Measured values reported in the supplement of paper PMC3334620.
The full ranking holds about 33,000 sequences; the median of “E-score (-0.5 to 0.5)” is about -0.021, and the highest 2% start at about 0.32. The list shows a part of the results.

Each sequence was assayed against T1, Zap1 (UniProt P47043) (assay: PBM E-score (8-mer binding enrichment) (E-score (-0.5 to 0.5)); higher = stronger / more preferred TF binding; most listed sequences are background and not binding sites). Conditions: protein concentration: 200 nM; construct: GST-full length.
T1 sequence: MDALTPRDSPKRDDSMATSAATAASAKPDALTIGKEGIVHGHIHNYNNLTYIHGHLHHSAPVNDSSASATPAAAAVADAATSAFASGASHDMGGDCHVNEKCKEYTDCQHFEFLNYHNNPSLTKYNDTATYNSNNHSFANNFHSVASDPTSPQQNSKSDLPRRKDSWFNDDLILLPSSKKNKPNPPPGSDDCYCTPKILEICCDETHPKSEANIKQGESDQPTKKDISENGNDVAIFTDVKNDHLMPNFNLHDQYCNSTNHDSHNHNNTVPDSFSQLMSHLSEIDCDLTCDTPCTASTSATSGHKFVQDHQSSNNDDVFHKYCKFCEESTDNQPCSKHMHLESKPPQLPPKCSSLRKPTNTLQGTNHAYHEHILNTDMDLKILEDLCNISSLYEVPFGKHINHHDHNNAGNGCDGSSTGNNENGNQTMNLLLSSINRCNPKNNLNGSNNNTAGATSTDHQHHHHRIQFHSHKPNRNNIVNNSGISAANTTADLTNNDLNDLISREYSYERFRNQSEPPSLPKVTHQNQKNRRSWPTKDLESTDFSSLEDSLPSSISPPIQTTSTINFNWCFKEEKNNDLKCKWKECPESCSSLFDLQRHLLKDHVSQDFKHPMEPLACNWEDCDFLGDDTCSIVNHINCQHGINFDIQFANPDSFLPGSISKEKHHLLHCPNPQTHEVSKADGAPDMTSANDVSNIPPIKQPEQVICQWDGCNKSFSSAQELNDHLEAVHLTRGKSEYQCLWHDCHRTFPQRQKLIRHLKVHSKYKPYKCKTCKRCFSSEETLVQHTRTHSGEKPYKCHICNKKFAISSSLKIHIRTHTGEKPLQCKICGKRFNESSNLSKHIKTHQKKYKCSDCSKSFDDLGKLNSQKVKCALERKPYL
Outline: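 Full-length yeast transcription factors or their DNA-binding domains, GST-tagged and expressed with PURExpress, were applied at about 100-200 nM to universal all-10-mer Agilent arrays. These arrays had been made double-stranded by primer extension on fresh or once-stripped slides. Detection used fluorescent anti-GST, normalisation used masliner, and E-scores for ungapped eight-base words pooled with reverse complements came from the Universal PBM Analysis Suite.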

Sequence	PBM E-score
CATTTATC	-0.0103
TCAAATAA	0.0658
ATTTCTCA	-0.0175
AGGGTATA	0.407
ATGGGTTC	0.116
ACTGTAGA	0.00884
CGGGGTAC	0.316
CAGGTCGC	0.0273
CAGCGTAC	-0.212
CTCCTTTC	-0.0488
AAGCTTTA	0.0355
CCAAGGCA	-0.00551
ACCGTGTC	-0.0593
GACCCAAC	0.165
ACACTTCC	-0.00939
AATGTCGC	-0.176
CTCCGGCA	-0.0211
GGGTCGAC	0.0155
GCGGGGGA	-0.263
ATCACTTG	-0.00539
GGTCGCAA	0.142
CCATCACC	0.254
ATATAGGA	0.0539
GCCTATCA	0.00364
ATGTGATC	0.0887

Sequence	PBM E-score
CGTATAAA	0.246
CCTAAAGA	0.0641
GTAATCGA	0.084
TGGAAACA	-0.0824
GAGATTCA	-0.192
AGTGGCTA	0.0692
ACGAACAC	0.0706
AGGCCTTA	0.0176
CAATGACG	0.00061
TATTATCA	0.106
ATGTAAGC	-0.0794
CATGCTTA	-0.0902
TCTAATCA	-0.0243
GGATTTTA	-0.00871
CTACGTAG	-0.0165
AAGCGTCT	-0.232
CACCGTAC	-0.0708
AAATCCTG	-0.024
ACTATCAA	0.178
CCAGCCGA	-0.197
CGGAACTC	-0.237
ACAAGCGG	0.193
AATAGACC	-0.0595
GATGTCAC	-0.0681
ACCGTAAT	0.0558

Sequence	PBM E-score
ATGAGAAC	0.0779
ATCATGAC	0.3
AAGATCTT	0.137
CGGCGTCA	-0.0629
CTTTTTAA	0.119
CTCTGCAG	-0.126
CCCTTGAC	0.193
CAACTATG	0.00478
CGATTTCA	-0.0156
CAGGACTA	-0.0298
CGTTTCCA	0.0387
CTCGTTTA	-0.0846
AAGCGGAG	-0.191
CGCGACAG	0.16
CGCACAGA	-0.173
CTCCGTAA	-0.034
CCCATCTC	-0.208
AATGTACC	0.202
TGAACTAA	-0.0312
AAGTTATC	0.0532
GGATAACC	0.436
CTCGAGAG	-0.0444
CGTTTCCC	-0.112
CCTACTCA	-0.014
AAAGACAG	0.108

Sequence	PBM E-score
GGCATAAA	0.045
CCCAGTAG	-0.0192
GTAGGAGA	-0.216
AGAGGGCG	-0.236
GACCTGAC	0.113
ACAGTGAA	-0.17
AGCCCCTA	-0.139
GAGGCCCA	-0.0554
GAGATCGC	-0.329
ACGGTGAG	-0.0979
CATCCTGA	0.0764
CCATGGTA	0.121
CCCCCAAA	-0.22
TACCGCAA	0.186
CCTCTGAG	0.163
ACACGTTG	-0.371
ATGCCCCG	-0.218
AGAAACGA	0.158
ACATCCCC	0.138
AATTGGCT	0.134
ACTAAACT	0.141
CGTTTAAC	0.0721
CGAGCTAG	-0.0682
ATGACAAA	-0.0495
CCTGAGAG	-0.0282

Sequence	PBM E-score
AAGCCACC	-0.212
ACCCGTTC	0.176
AGTTCGCA	-0.0927
ATCGCGAC	0.0816
AACCGCAT	0.253
CCCAACGG	0.208
ATCTAACC	0.226
AGAGGACA	-0.0899
GTGTCATA	0.165
CGAAGGCG	-0.121
GACAGGCC	-0.0803
GCGGCAGA	-0.149
CGAAAGGC	-0.166
AAAATTGA	0.101
AGTTTGCC	0.00335
CCCTACCA	0.113
TGGTCTAA	0.00632
CTACTGTA	-0.0171
CCGAGCCC	-0.365
CGCCGGTC	-0.139
ATAGTTAA	0.0396
GATTGTGA	0.0466
GACAGCTC	-0.222
GAAAGGAC	-0.0349
GTTGAGCA	-0.00381

Sequence	PBM E-score
CGAAGCGC	-0.177
TACTCTCA	0.00964
CGTTAGCC	-0.0813
TAAGCGGA	-0.111
CCCAACCC	0.163
CAGAACTA	0.0489
ACGCCACT	-0.111
AGTGTACG	0.021
AGCTACCG	-0.261
ATCCAATA	0.159
CCGTTCTC	-0.047
CGCAGCCG	-0.306
AAATAGGA	0.03
AACTGCTG	-0.154
AGAGGGTA	0.29
GATAATTA	0.189
CACTGACG	-0.0945
CGCTCAAA	0.0275
AATTCTCT	-0.332
GTCACAAA	0.196
CCCCGGAG	0.153
ACACCTGT	0.00562
GCCGCTCC	-0.35
CAGTTTGA	0.0416
AAGGCGCT	-0.225

Sequence	PBM E-score
CGCTGCAA	0.0109
TATGTGCA	-0.041
CGCTGACG	-0.249
TATAAACA	0.168
GTCTGCCA	-0.0935
AATCTGCC	-0.0605
ACGAAACA	0.0606
AAATTAAA	0.21
GTCTCCGA	-0.187
ACTGGCCA	-0.013
GCATCAGA	-0.128
AACGTCTT	-0.312
GTACCCTA	0.413
CTGCAAGC	-0.142
CCAGCAGA	-0.112
CTGATCAA	-0.116
CATCGGAG	-0.00826
CCAAAAGG	0.337
GTTGATCA	0.0532
GAATAGAC	-0.188
GAAACCGA	-0.0377
ACTGATGA	0.038
